Read-outs that look alike come from different tables or passages of the source. The source gives many values for each of these; only a part stands here.
Legend:
[1] = Localization in callous of three week-old tibial fractures in rabbits (Example 2); assay type: in vivo, albino rabbit; conditions: rabbits i.v.
Experimental: (§1) Adult New Zealand albino rabbits having an average weight of 3.8 kg were utilized. Strontium-85 was employed as a standard for comparison. […] Each dosage is contained in a volume of 1 ml.
The animals were sacrificed serially from 1 to 24 hours after injection and the activities in major organs were determined by counting multiple samples from each organ in a scintillation well counter (the technetium-99m counts were corrected for the Compton contributions from the strontium-85 activity in the technetium-99m energy window). Multiple samples were counted from the tibia, femur, spine and pelvic bones; the total activity in the skeleton was estimated by assuming the whole skeleton consisted of equal proportions by weight of tibia, spine, femur and pelvis and that the skeletal mass was 10% of the body weight. […] The whole liver and both kidneys were weighed and multiple samples from each were counted to measure the total activity in each organ.
In another series of experiments carried out as described above, localization of technetium from its tin-phosphonate complex was determined in the callous of three week-old fractures of tibia in albino rabbits, again in comparison with strontium-85. Comparative radioassay of technetium-99m administered as the pertechnetate was measured in the callous of tibial fractures in rabbits at one and four hours after administration.

[2] = Distribution of 99mTc-Sn-AEDP and 85Sr in rabbits, carrier effect of AEDP (Example 4); assay type: in vivo, rabbit; conditions: 2 Hrs.
Experimental: as §1
The animals were sacrificed serially from 1 to 24 hours after injection and the activities in major organs were determined by counting multiple samples from each organ in a scintillation well counter (the technetium-99m counts were corrected for the Compton contributions from the strontium-85 activity in the technetium-99m energy window). Multiple samples were counted from the tibia, femur, spine and pelvic bones; the total activity in the skeleton was estimated by assuming the whole skeleton consisted of equal proportions by weight of tibia, spine, femur and pelvis and that the skeletal mass was 10% of the body weight. The red marrow was sampled from the femur and the total marrow was assumed to be 2.2% of the total body weight. Similarly, blood volume was assumed to be 7% and the skeletal muscle 43% of the body weight. The whole liver and both kidneys were weighed and multiple samples from each were counted to measure the total activity in each organ.
In another series of experiments carried out as described in Example 2, the distribution of technetium 99m from its 99m-technetium-tin-methylene diphosphonate complex was determined in albino rabbits, again in comparison with strontium-85.
The distribution of technetium 99m from its 99m technetium-tin-1-amino-ethane-1,1-diphosphonate complex was determined as in Example 3 and compared with the distribution of strontium-85.

[3] = rabbits, 2 Hrs.

## [85Sr+2].[Cl-].[Cl-] [^85 Sr, 85Sr chloride]
[1]; 1 Hr.
  Callus, % dose/1% body weight: 31.2 % dose/1% body weight
[1]; 4 Hrs
  Callus, % dose/1% body weight: 37.7 % dose/1% body weight
[2]; AEDP 0.01 mg/kg
  Blood, % Dose/1% Body weight: 0.427 % Dose/1% Body weight
  Bone Ave, % Dose/1% Body weight: 10.33 % Dose/1% Body weight
  Femur, % Dose/1% Body weight: 10.38 % Dose/1% Body weight
  Kidneys, % Dose/1% Body weight: 0.567 % Dose/1% Body weight
  Liver, % Dose/1% Body weight: 0.177 % Dose/1% Body weight
  Marrow, % Dose/1% Body weight: 0.211 % Dose/1% Body weight
  Muscle, % Dose/1% Body weight: 0.116 % Dose/1% Body weight
  Pelvis, % Dose/1% Body weight: 10.66 % Dose/1% Body weight
  Spine, % Dose/1% Body weight: 8.98 % Dose/1% Body weight
  Tibia, % Dose/1% Body weight: 11.28 % Dose/1% Body weight
[2]; AEDP 0.05 mg/kg
  Blood, % Dose/1% Body weight: 0.357 % Dose/1% Body weight
  Bone Ave, % Dose/1% Body weight: 12.34 % Dose/1% Body weight
  Femur, % Dose/1% Body weight: 12.62 % Dose/1% Body weight
  Kidneys, % Dose/1% Body weight: 0.551 % Dose/1% Body weight
  Liver, % Dose/1% Body weight: 0.134 % Dose/1% Body weight
  Marrow, % Dose/1% Body weight: 0.221 % Dose/1% Body weight
  Muscle, % Dose/1% Body weight: 0.118 % Dose/1% Body weight
  Pelvis, % Dose/1% Body weight: 11.44 % Dose/1% Body weight
  Spine, % Dose/1% Body weight: 11.60 % Dose/1% Body weight
  Tibia, % Dose/1% Body weight: 13.69 % Dose/1% Body weight
[2]; AEDP 0.1 mg/kg
  Blood, % Dose/1% Body weight: 0.354 % Dose/1% Body weight
  Bone Ave, % Dose/1% Body weight: 10.48 % Dose/1% Body weight
  Femur, % Dose/1% Body weight: 10.97 % Dose/1% Body weight
  Kidneys, % Dose/1% Body weight: 0.441 % Dose/1% Body weight
  Liver, % Dose/1% Body weight: 0.182 % Dose/1% Body weight
  Marrow, % Dose/1% Body weight: 0.166 % Dose/1% Body weight
  Muscle, % Dose/1% Body weight: 0.136 % Dose/1% Body weight
  Pelvis, % Dose/1% Body weight: 8.66 % Dose/1% Body weight
  Spine, % Dose/1% Body weight: 10.56 % Dose/1% Body weight
  Tibia, % Dose/1% Body weight: 11.71 % Dose/1% Body weight
[2]; AEDP 0.5 mg/kg
  Blood, % Dose/1% Body weight: 0.624 % Dose/1% Body weight
  Bone Ave, % Dose/1% Body weight: 10.78 % Dose/1% Body weight
  Femur, % Dose/1% Body weight: 10.43 % Dose/1% Body weight
  Kidneys, % Dose/1% Body weight: 0.924 % Dose/1% Body weight
  Liver, % Dose/1% Body weight: 0.270 % Dose/1% Body weight
  Marrow, % Dose/1% Body weight: 0.207 % Dose/1% Body weight
  Muscle, % Dose/1% Body weight: 0.151 % Dose/1% Body weight
  Pelvis, % Dose/1% Body weight: 11.42 % Dose/1% Body weight
  Spine, % Dose/1% Body weight: 9.87 % Dose/1% Body weight
  Tibia, % Dose/1% Body weight: 11.37 % Dose/1% Body weight

## tin-1-hydroxy-ethane-1,1-diphosphonate [^99m Tc-EHDP]
[3]; EHDP 0.01 mg/kg
  Ave Bone, % Dose/1%-body weight: 7.36 % Dose/1%-body weight
  Muscle, % Dose/1%-body weight: 0.018 % Dose/1%-body weight
  Pelvis, % Dose/1%-body weight: 7.57 % Dose/1%-body weight
  Spine, % Dose/1%-body weight: 6.17 % Dose/1%-body weight
[3]; EHDP 0.05 mg/kg
  Ave Bone, % Dose/1%-body weight: 7.96 % Dose/1%-body weight
  Muscle, % Dose/1%-body weight: 0.031 % Dose/1%-body weight
  Pelvis, % Dose/1%-body weight: 8.25 % Dose/1%-body weight
  Spine, % Dose/1%-body weight: 6.51 % Dose/1%-body weight
[3]; EHDP 0.1 mg/kg
  Ave Bone, % Dose/1%-body weight: 9.73 % Dose/1%-body weight
  Muscle, % Dose/1%-body weight: 0.023 % Dose/1%-body weight
  Pelvis, % Dose/1%-body weight: 12.10 % Dose/1%-body weight
  Spine, % Dose/1%-body weight: 8.18 % Dose/1%-body weight
[3]; EHDP 0.5 mg/kg
  Ave Bone, % Dose/1%-body weight: 6.60 % Dose/1%-body weight
  Muscle, % Dose/1%-body weight: 0.028 % Dose/1%-body weight
  Pelvis, % Dose/1%-body weight: 7.38 % Dose/1%-body weight
  Spine, % Dose/1%-body weight: 5.885 % Dose/1%-body weight
  Tibia, % Dose/1%-body weight: 6.639 % Dose/1%-body weight

— patent publication US4115541A (priority 1975, dated 1978)
